Results as given in the BET-seq Pho4 binding data (Le et al. 2018).
This is one part of the list. Values were computed here from the reads of four pooled replicates and scatter widely.

What follows are sequences tested against T1, Pho4 (S. cerevisiae) (UniProt P07270) (assay: relative binding free energy (BET-seq); higher = weaker binding). Details: reference: library average.
T1 sequence: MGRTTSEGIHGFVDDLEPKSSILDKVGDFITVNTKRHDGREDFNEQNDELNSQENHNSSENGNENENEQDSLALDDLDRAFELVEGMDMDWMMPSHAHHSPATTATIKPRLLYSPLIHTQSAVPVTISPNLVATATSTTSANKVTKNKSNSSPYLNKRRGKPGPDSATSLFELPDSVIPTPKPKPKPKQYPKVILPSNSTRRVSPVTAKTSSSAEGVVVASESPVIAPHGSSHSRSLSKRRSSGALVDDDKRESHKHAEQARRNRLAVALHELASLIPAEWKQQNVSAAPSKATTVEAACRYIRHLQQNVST

Sequence	relative binding free energy
GATCGCACGTGTTGTA	0.04 kcal/mol
TGGAGCACGTGTCGAT	-0.05 kcal/mol
GAAGTCACGTGGGTAT	0.15 kcal/mol
GGAATCACGTGCTGGG	0.25 kcal/mol
GATGCCACGTGTGTTT	0.05 kcal/mol
AAGGGCACGTGGTTGG	-0.19 kcal/mol
GGGATCACGTGGTAGT	0.13 kcal/mol
GCAAGCACGTGGGGGT	-0.23 kcal/mol
TATGGCACGTGAGATT	0.06 kcal/mol
TGGACCACGTGATTGT	0.18 kcal/mol
TAGGTCACGTGAGTCT	0.33 kcal/mol
TTAAACACGTGAGGTA	0.09 kcal/mol
GATGTCACGTGGTCTT	0.19 kcal/mol
TTGTGCACGTGTGTCC	-0.06 kcal/mol
AATTACACGTGAAATT	0.46 kcal/mol
TGCATCACGTGTGTGA	0.08 kcal/mol
AGTAGCACGTGTTCAG	-0.13 kcal/mol
ATTGACACGTGGCGTA	-0.1 kcal/mol
TGGGTCACGTGCGCTT	-0.06 kcal/mol
TGATACACGTGCGTTA	-0.01 kcal/mol
TGTGACACGTGAGATG	0.23 kcal/mol
GGTGCCACGTGACTGG	0.01 kcal/mol
TCACTCACGTGGTGGT	0.16 kcal/mol
CGTCTCACGTGGGTTA	0.07 kcal/mol
GTTTTCACGTGAAGCA	0.53 kcal/mol
GGTGTCACGTGACACG	0.32 kcal/mol

Sequence	relative binding free energy
ATGTCCACGTGTGATT	0.03 kcal/mol
TGAGACACGTGTTTAA	0.02 kcal/mol
CGTGTCACGTGGGTTG	0.03 kcal/mol
CTCGGCACGTGGTCGG	-0.08 kcal/mol
AGGGGCACGTGTTATT	0 kcal/mol
ATGTGCACGTGGTTTC	-0.15 kcal/mol
CGGGTCACGTGGATGA	0.06 kcal/mol
TTTAGCACGTGGGGGG	-0.23 kcal/mol
CTATTCACGTGGTCTG	0.25 kcal/mol
TAATACACGTGGAGTG	-0.05 kcal/mol
TCTGGCACGTGGACGG	-0.06 kcal/mol
AGTATCACGTGGTTTC	0.14 kcal/mol
ACTATCACGTGTGAGT	0.24 kcal/mol
CTAGACACGTGTTGGT	0.11 kcal/mol
ATTATCACGTGTTCAT	0.05 kcal/mol
GGGGGCACGTGGAGCA	-0.19 kcal/mol
TCGGGCACGTGAGTGT	0.19 kcal/mol
GTGAGCACGTGTTCAG	-0.03 kcal/mol
TTGTTCACGTGATAGG	0.46 kcal/mol
AGGGACACGTGGCTAG	-0.04 kcal/mol
AGTGTCACGTGGAGTT	0.08 kcal/mol
CTAGACACGTGTTTTT	0.09 kcal/mol
GATGCCACGTGAGTGT	0.26 kcal/mol
GCGGGCACGTGTTGTC	-0.01 kcal/mol
AGCAACACGTGTTGTG	-0.06 kcal/mol
TGCGTCACGTGGGGAG	-0.04 kcal/mol

Sequence	relative binding free energy
TTGTACACGTGATAAA	0.3 kcal/mol
CTTTACACGTGTTCGG	0.17 kcal/mol
ATTGGCACGTGCATGT	-0.2 kcal/mol
CATTTCACGTGGTTTG	0.26 kcal/mol
CATTTCACGTGGCGTT	0.25 kcal/mol
AGAATCACGTGTCGGT	0.07 kcal/mol
TTGGACACGTGTTCTA	0.13 kcal/mol
AAATACACGTGTATTG	0 kcal/mol
GTCGGCACGTGTCTGT	-0.01 kcal/mol
GGTAACACGTGTATGG	0.03 kcal/mol
AGAGGCACGTGATGAA	-0.07 kcal/mol
ATTCTCACGTGTAGGA	0.12 kcal/mol
AGAGGCACGTGTGGTC	-0.02 kcal/mol
CAGATCACGTGTGTTA	0.28 kcal/mol
ATATGCACGTGTTGAT	-0.11 kcal/mol
TCTGGCACGTGGGTTT	-0.1 kcal/mol
GTCTTCACGTGAGGTG	0.47 kcal/mol
ATGTGCACGTGAGGTG	0.19 kcal/mol
TAGTTCACGTGGTCCG	0.25 kcal/mol
GTTTGCACGTGAACTT	0.18 kcal/mol
GGAAGCACGTGGGGTA	-0.24 kcal/mol
CGTGCCACGTGTGGAG	-0.1 kcal/mol
TGATGCACGTGCGGGA	-0.04 kcal/mol
GGTGGCACGTGACGGT	0.08 kcal/mol
GTCGACACGTGCGGGT	-0.02 kcal/mol
AATGGCACGTGTGTTC	-0.12 kcal/mol

Sequence	relative binding free energy
TAGGACACGTGGCTGG	-0.01 kcal/mol
TTGTCCACGTGTTTGC	0.01 kcal/mol
TTGGACACGTGACGTA	0.13 kcal/mol
TTGAACACGTGGGTAG	-0.06 kcal/mol
GAGGTCACGTGTAGTT	0.13 kcal/mol
GGAGTCACGTGTTAGC	0.21 kcal/mol
CCATGCACGTGTTGGG	-0.08 kcal/mol
AGGGTCACGTGACGGT	0.2 kcal/mol
CAATGCACGTGGGAGG	-0.07 kcal/mol
TTGGTCACGTGGTGTT	0.11 kcal/mol
TAGATCACGTGGTGCG	0.15 kcal/mol
GGTTTCACGTGTGCTT	0.19 kcal/mol
CTTATCACGTGTGTGA	0.2 kcal/mol
GTTGACACGTGGTGCG	-0.13 kcal/mol
AGAGGCACGTGATTTG	-0.2 kcal/mol
GGGATCACGTGCTATG	0.08 kcal/mol
ACTATCACGTGGGTGG	-0.12 kcal/mol
ATTGGCACGTGGGTCG	-0.33 kcal/mol
CGAATCACGTGTGTTT	0.11 kcal/mol
TGTCTCACGTGGGGGT	0.08 kcal/mol
CGTGTCACGTGAATAG	0.24 kcal/mol
GGGGTCACGTGGACTT	0.27 kcal/mol
TTGATCACGTGGTTAT	0.14 kcal/mol
GGTTGCACGTGTTATA	0.07 kcal/mol
CGGTGCACGTGGCGCG	-0.13 kcal/mol
GTATACACGTGTTCAT	0.1 kcal/mol

Sequence	relative binding free energy
TGGTGCACGTGGACGG	-0.05 kcal/mol
ATTGACACGTGGAGGA	0.01 kcal/mol
GTAGTCACGTGGTCTA	0.06 kcal/mol
GATACCACGTGGGGGT	-0.16 kcal/mol
ACGAACACGTGGGTGT	-0.16 kcal/mol
TCGGTCACGTGAGGCG	0.21 kcal/mol
AGGGTCACGTGGATAC	0.18 kcal/mol
GTAGCCACGTGGAAGT	0.13 kcal/mol
CGTAGCACGTGGGTGC	-0.25 kcal/mol
TGTACCACGTGGATGG	-0.18 kcal/mol
GTGTGCACGTGCGTTG	-0.03 kcal/mol
AGTTGCACGTGTGTCG	0.08 kcal/mol
GTTTTCACGTGGTCAA	0.18 kcal/mol
TCTATCACGTGCTTGG	0.11 kcal/mol
AGGCTCACGTGGGTGC	0.04 kcal/mol
TAAGGCACGTGTGTGA	-0.15 kcal/mol
TAATTCACGTGAACGT	0.33 kcal/mol
TTTACCACGTGTTGTA	-0.22 kcal/mol
ATTTTCACGTGATAAG	0.32 kcal/mol
TTATACACGTGGGTGA	-0.04 kcal/mol
TGTGACACGTGTGTAG	0 kcal/mol
GGTGTCACGTGTAAAA	0.13 kcal/mol
CTGAGCACGTGTGAGT	-0.09 kcal/mol
TAGTTCACGTGAGAGA	0.46 kcal/mol
TGCTGCACGTGTGTTG	0.04 kcal/mol
GGGGCCACGTGATTGA	0.05 kcal/mol

Sequence	relative binding free energy
TAGTGCACGTGCGGCA	-0.14 kcal/mol
TAGGTCACGTGTATTA	0.04 kcal/mol
AGATACACGTGAGTGT	0.05 kcal/mol
TCTGGCACGTGATTAG	-0.03 kcal/mol
GACGGCACGTGCGAGG	0.04 kcal/mol
TGGCTCACGTGTCGTA	0.22 kcal/mol
GGTGGCACGTGGCAGT	-0.11 kcal/mol
ACGGCCACGTGTGTGG	0.01 kcal/mol
TTGAACACGTGGTGAA	0 kcal/mol
TGGAACACGTGTGTGG	0.09 kcal/mol
TGTTTCACGTGTACTG	0.09 kcal/mol
AATTCCACGTGTTTTG	0.19 kcal/mol
ATAGCCACGTGGTGTT	-0.26 kcal/mol
TCAAGCACGTGATGGT	-0.08 kcal/mol
TGTTACACGTGAGGTA	0.11 kcal/mol
GGCGTCACGTGGGTCT	-0.08 kcal/mol
GTGTTCACGTGGAAGG	0.35 kcal/mol
GTGTGCACGTGATGGA	0.18 kcal/mol
TAGCTCACGTGTGGTG	0.29 kcal/mol
GATAGCACGTGTGGGT	0.04 kcal/mol
AATTGCACGTGGTGTC	-0.11 kcal/mol
CAGGCCACGTGGTGTG	-0.25 kcal/mol
GTATGCACGTGATGCG	-0.12 kcal/mol
GTTTACACGTGGAGTT	0.24 kcal/mol
GTCTGCACGTGATAGG	0.19 kcal/mol
GTTTTCACGTGAAATA	0.31 kcal/mol

Sequence	relative binding free energy
TAGGTCACGTGTAATT	0.17 kcal/mol
TTCGGCACGTGGGTTC	-0.1 kcal/mol
CAATACACGTGTGGGG	0.19 kcal/mol
TTGGGCACGTGGTTCG	-0.1 kcal/mol
TTACTCACGTGGTTAG	0.01 kcal/mol
GGTTACACGTGCATGA	0.24 kcal/mol
TCGTGCACGTGTATAG	0.02 kcal/mol
ATTGCCACGTGGGGTG	-0.26 kcal/mol
TTAATCACGTGAGGTC	0.32 kcal/mol
AGAAACACGTGGGAGT	-0.07 kcal/mol
AGTTACACGTGGGAGG	0 kcal/mol
CGTGGCACGTGTAGAA	0.03 kcal/mol
TGGATCACGTGTTTAA	0.16 kcal/mol
AGTGTCACGTGCTTTG	-0.04 kcal/mol
TTAATCACGTGAGTAG	0.29 kcal/mol
ATATGCACGTGTAGCT	-0.05 kcal/mol
GAGTCCACGTGATTTG	0.32 kcal/mol
TGTTGCACGTGATTGT	0.15 kcal/mol
ATCTTCACGTGCGTGG	0.07 kcal/mol
TCGTTCACGTGGGTGA	0.22 kcal/mol
GTGGTCACGTGCTTGT	0.14 kcal/mol
CGAGTCACGTGTGGTC	0.18 kcal/mol
GATTGCACGTGTTGAT	0.18 kcal/mol
AGACACACGTGAGGGG	0.09 kcal/mol
GTCATCACGTGTGTGC	0.27 kcal/mol
ATCGTCACGTGTAATG	0.23 kcal/mol

Sequence	relative binding free energy
CGGTGCACGTGAGTGT	0.19 kcal/mol
ACTTTCACGTGTTGTT	0.18 kcal/mol
AAGTTCACGTGAGGCT	0.46 kcal/mol
CATTTCACGTGAATGG	0.55 kcal/mol
CGGGTCACGTGAAGTA	0.44 kcal/mol
TGGTTCACGTGGGTTT	0.27 kcal/mol
CGTTTCACGTGGGCGG	0.14 kcal/mol
ATGTCCACGTGGTTGG	-0.06 kcal/mol
ACGTGCACGTGAGGAG	-0.01 kcal/mol
TAGGTCACGTGGGGAA	0.03 kcal/mol
ATTGTCACGTGCATGA	-0.08 kcal/mol
GGTTGCACGTGTGCGG	0.05 kcal/mol
AGGAGCACGTGCGCGG	-0.23 kcal/mol
TGGGTCACGTGATTTC	0.38 kcal/mol
TGATTCACGTGAGGGA	0.27 kcal/mol
AGAGGCACGTGTAGGG	-0.08 kcal/mol
ATATACACGTGGGCTT	-0.23 kcal/mol
GTGGACACGTGTTCGA	-0.02 kcal/mol
TGTTACACGTGAGTTT	0.33 kcal/mol
TCAGTCACGTGGAAGT	0.09 kcal/mol
TTGGACACGTGAGGTA	0.32 kcal/mol
AAGGGCACGTGGGAGA	-0.24 kcal/mol
ACGTGCACGTGTGGGC	0.03 kcal/mol
TAGTGCACGTGCGTGG	-0.13 kcal/mol
GTGGTCACGTGGCTAT	0.14 kcal/mol
GTGCGCACGTGGTTGG	-0.08 kcal/mol

Sequence	relative binding free energy
GTGTGCACGTGACATA	0.15 kcal/mol
TGGGACACGTGGGTTC	-0.05 kcal/mol
TCTATCACGTGAGGCG	0.45 kcal/mol
ATGGGCACGTGAATTA	0.15 kcal/mol
GTTACCACGTGGAAGT	0.15 kcal/mol
TGTAGCACGTGTAATG	-0.04 kcal/mol
GGTAGCACGTGGGCGA	-0.26 kcal/mol
GTATCCACGTGTTTAG	0.17 kcal/mol
TATATCACGTGTAGCT	0.21 kcal/mol
GACCGCACGTGGAGGG	0.01 kcal/mol
TAATGCACGTGTGAGT	-0.02 kcal/mol
GTCGTCACGTGATGTC	0.25 kcal/mol
TGTATCACGTGGGGCC	0.01 kcal/mol
ATTGTCACGTGGGTCA	0.02 kcal/mol
AGGTACACGTGTACGG	0.08 kcal/mol
AGCGACACGTGGTTGG	0.11 kcal/mol
TTGGTCACGTGGGCAG	-0.09 kcal/mol
AGATGCACGTGGGGGG	-0.23 kcal/mol
ATGGCCACGTGGGTTG	-0.2 kcal/mol
GCTGGCACGTGCAGGT	-0.06 kcal/mol
CCGTTCACGTGGGTTT	0.08 kcal/mol
GAATTCACGTGGGGGC	0.36 kcal/mol
